Variants at the floor of the assay are shown more often than the library holds them.
B1: glmS ribozyme (parent)
chain: AUAAAAGCGCCAGAACUACAGAAAUGUAGUUGACGAGGAGGAGGUUUAUCGAAUUUUCGGCGGAUGCCUCCAAA

What was measured:
Settings in all cases: with glucosamine-6-phosphate
glucosamine-6-phosphate [1] = variants of: B1; test: self-cleavage kobs at 40 uM GlcN6P; higher = faster cleavage; RNA array
How it was run: (§1)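 Tiles of sequenced MiSeq chips were imaged over ~14 h at 37 °C. On them, barcoded ribozyme variants had been transcribed in situ by E. coli RNA polymerase and were tracked via a hybridised Cy3 probe while glucosamine-6-phosphate (40 μM to 10 mM) in HEPES/KCl/Mg(OAc)2 buffer flowed in. Per-tile medians, normalised to baseline and to non-cleaving reference variants, were fit to one- or two-exponential decays for kobs, and weighted Michaelis–Menten fits gave kcat and KM.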

glucosamine-6-phosphate [2] = variants of: B1; test: self-cleavage kobs at 640 uM GlcN6P; higher = faster cleavage; RNA array
How it was run: as §1

glucosamine-6-phosphate [3] = variants of: B1; test: self-cleavage kobs at 2500 uM GlcN6P; higher = faster cleavage; RNA array
How it was run: as §1

glucosamine-6-phosphate [4] = variants of: B1; test: self-cleavage kobs at 10000 uM GlcN6P; higher = faster cleavage; RNA array
How it was run: as §1

glucosamine-6-phosphate [5] = variants of: B1; test: self-cleavage kobs at 160 uM GlcN6P; higher = faster cleavage; RNA array
How it was run: as §1

AUAAAAGCGCCAGAACUACAGAAAUGUAGUUGAGGAGGAGGAGGUUUAUCGAUUUUUCGGCGGAUGCCUCCAAA [C34G A53U]
< 1e-05 s⁻¹: self-cleavage kobs at 40 uM GlcN6P (glucosamine-6-phosphate [1]) | self-cleavage kobs at 640 uM GlcN6P (glucosamine-6-phosphate [2]) | self-cleavage kobs at 2500 uM GlcN6P (glucosamine-6-phosphate [3]) | self-cleavage kobs at 10000 uM GlcN6P (glucosamine-6-phosphate [4])

AUAAAAGCGCCAGAACUACAGAAAUGUAGUUGAGGAGGAGGCGGUUUAUCGAAUUUUCGGAGGAUGCCUCCAAA [C34G A42C C61A]
< 1e-05 s⁻¹: self-cleavage kobs at 40 uM GlcN6P (glucosamine-6-phosphate [1]) | self-cleavage kobs at 640 uM GlcN6P (glucosamine-6-phosphate [2]) | self-cleavage kobs at 2500 uM GlcN6P (glucosamine-6-phosphate [3])

AUAAAAGCGCCAGAACUACAGAAAUGUAGUUGAGGAGGAGGAGGUUUAUCGAAUUUUCGACGGAUGCCUUCAAA [C34G G60A C70U]
< 1e-05 s⁻¹: self-cleavage kobs at 40 uM GlcN6P (glucosamine-6-phosphate [1]) | self-cleavage kobs at 160 uM GlcN6P (glucosamine-6-phosphate [5]) | self-cleavage kobs at 10000 uM GlcN6P (glucosamine-6-phosphate [4])

AUAAAAGCGCCAGAACUACAGAAAUGUAGUUGAGGAGGAGGAGGUUUAUCGAAUUUUCGGCGGCUGCCUCCAAA [C34G A64C]
< 1e-05 s⁻¹: self-cleavage kobs at 40 uM GlcN6P (glucosamine-6-phosphate [1]) | self-cleavage kobs at 640 uM GlcN6P (glucosamine-6-phosphate [2]) | self-cleavage kobs at 2500 uM GlcN6P (glucosamine-6-phosphate [3]) | self-cleavage kobs at 10000 uM GlcN6P (glucosamine-6-phosphate [4])

AUAAAAGCGCCAGAACUACAGAAAUGUAGUUGAGGAGGAGGAGGUUUAUCUAAUAUUCGGCGGAUGCCUCCAAA [C34G G51U U55A]
< 1e-05 s⁻¹: self-cleavage kobs at 40 uM GlcN6P (glucosamine-6-phosphate [1]) | self-cleavage kobs at 10000 uM GlcN6P (glucosamine-6-phosphate [4])

AUAAAAGCGCCAGAACUACAGAAAUGUAGUUGAGGAGGAGGAGGUUUAUCGAAUUUUAGGCGGAUGACUCCAAA [C34G C58A C67A]
< 1e-05 s⁻¹: self-cleavage kobs at 40 uM GlcN6P (glucosamine-6-phosphate [1])

AUAAAAGCGCCAGAACUACAGAAAUGUAGUUGAGGAGGAGGAGGUUUAACGAAUUUUCGGCGGAUGCCUCCAAA [C34G U49A]
< 1e-05 s⁻¹: self-cleavage kobs at 40 uM GlcN6P (glucosamine-6-phosphate [1]) | self-cleavage kobs at 10000 uM GlcN6P (glucosamine-6-phosphate [4])

AUAAAAGCGCCAGAACUACAGAAAUGUAGUUGAGGAGGAGGAGGUGUAUCGAAUUUUCGGCGGAUGCCUCCAAA [C34G U46G]
< 1e-05 s⁻¹: self-cleavage kobs at 40 uM GlcN6P (glucosamine-6-phosphate [1]) | self-cleavage kobs at 640 uM GlcN6P (glucosamine-6-phosphate [2]) | self-cleavage kobs at 160 uM GlcN6P (glucosamine-6-phosphate [5]) | self-cleavage kobs at 10000 uM GlcN6P (glucosamine-6-phosphate [4])

AUAAAAGCGCCAGAACUACAGAAAUGUAGUUGAGGAGGAGGAGGUUUAUCAAAUUUUCGGCGGAUGCCUCCAAA [C34G G51A]
< 1e-05 s⁻¹: self-cleavage kobs at 40 uM GlcN6P (glucosamine-6-phosphate [1]) | self-cleavage kobs at 640 uM GlcN6P (glucosamine-6-phosphate [2]) | self-cleavage kobs at 160 uM GlcN6P (glucosamine-6-phosphate [5]) | self-cleavage kobs at 2500 uM GlcN6P (glucosamine-6-phosphate [3]) | self-cleavage kobs at 10000 uM GlcN6P (glucosamine-6-phosphate [4])

AUAAAAGCGCCAGAACUACAGAAAUGUAGUUGAUGAGGCGGAGGUUUAUCGAAUUUUCGGCGAAUCCCUCCAAA [C34U A39C G63A G66C]
< 1e-05 s⁻¹: self-cleavage kobs at 40 uM GlcN6P (glucosamine-6-phosphate [1]) | self-cleavage kobs at 640 uM GlcN6P (glucosamine-6-phosphate [2]) | self-cleavage kobs at 160 uM GlcN6P (glucosamine-6-phosphate [5]) | self-cleavage kobs at 2500 uM GlcN6P (glucosamine-6-phosphate [3]) | self-cleavage kobs at 10000 uM GlcN6P (glucosamine-6-phosphate [4])

AUAAAAGCGCCAGAACUACAGAAAUGUAGUUGAGGAGGAGGAGGUUUAUCGAAUAUUCGGCGGAUGCCUCCAAA [C34G U55A]
< 1e-05 s⁻¹: self-cleavage kobs at 40 uM GlcN6P (glucosamine-6-phosphate [1]) | self-cleavage kobs at 640 uM GlcN6P (glucosamine-6-phosphate [2]) | self-cleavage kobs at 160 uM GlcN6P (glucosamine-6-phosphate [5]) | self-cleavage kobs at 2500 uM GlcN6P (glucosamine-6-phosphate [3]) | self-cleavage kobs at 10000 uM GlcN6P (glucosamine-6-phosphate [4])

AUAAAAGCGCCAGAACUACAGAAAUGUAGUUGAGGAGGAGGAGGUUUAUCGAAUGUUCGGCGGAUGCCUCCAAA [C34G U55G]
< 1e-05 s⁻¹: self-cleavage kobs at 40 uM GlcN6P (glucosamine-6-phosphate [1]) | self-cleavage kobs at 10000 uM GlcN6P (glucosamine-6-phosphate [4])

AUAAAAGCGCCAGAACUACAGAAAUGUAGUUGAGGAGGAGGAGGUUUAUCGAAUUUUCGGCUGAUGCCUCCAAA [C34G G62U]
< 1e-05 s⁻¹: self-cleavage kobs at 40 uM GlcN6P (glucosamine-6-phosphate [1]) | self-cleavage kobs at 2500 uM GlcN6P (glucosamine-6-phosphate [3]) | self-cleavage kobs at 10000 uM GlcN6P (glucosamine-6-phosphate [4])

AUAAAAGCGCCAGAACUACAGAAAUGUAGUUGAGGAGGAGGAGGUUUAUCAAAUUUUCGGCAGAUGCCUCCAAA [C34G G51A G62A]
< 1e-05 s⁻¹: self-cleavage kobs at 40 uM GlcN6P (glucosamine-6-phosphate [1])

AUAAAAGCGCCAGAACUACAGAAAUGUAGUUGAGGAGGAGGAGGUUUACCGAAUUUUCGGCGGAUGCUUUCAAA [C34G U49C C68U C70U]
< 1e-05 s⁻¹: self-cleavage kobs at 40 uM GlcN6P (glucosamine-6-phosphate [1])

AUAAAAGCGCCAGAACUACAGAAAUGUAGUUGAGGAGGAGUAGGUUUAUCGAAUUUUCGGCGGAUGCCUCCAAA [C34G G41U]
< 1e-05 s⁻¹: self-cleavage kobs at 40 uM GlcN6P (glucosamine-6-phosphate [1]) | self-cleavage kobs at 640 uM GlcN6P (glucosamine-6-phosphate [2]) | self-cleavage kobs at 160 uM GlcN6P (glucosamine-6-phosphate [5]) | self-cleavage kobs at 2500 uM GlcN6P (glucosamine-6-phosphate [3]) | self-cleavage kobs at 10000 uM GlcN6P (glucosamine-6-phosphate [4])

AUAAAAGCGCCAGAACUACAGAAAUGUAGUUGAGGAGGAGGAGGUUUCUCGAAUUUUCGGCGGAUGCCUCCAAA [C34G A48C]
< 1e-05 s⁻¹: self-cleavage kobs at 40 uM GlcN6P (glucosamine-6-phosphate [1]) | self-cleavage kobs at 640 uM GlcN6P (glucosamine-6-phosphate [2]) | self-cleavage kobs at 160 uM GlcN6P (glucosamine-6-phosphate [5]) | self-cleavage kobs at 2500 uM GlcN6P (glucosamine-6-phosphate [3]) | self-cleavage kobs at 10000 uM GlcN6P (glucosamine-6-phosphate [4])

AUAAAAGCGCCAGAACUACAGAAAUGUAGUUGAGGAGGAGGAGGUUUAUCGAAUUUUCGGCGGAUGCCUCCAAA [C34G]
< 1e-05 s⁻¹: self-cleavage kobs at 40 uM GlcN6P (glucosamine-6-phosphate [1]) | self-cleavage kobs at 640 uM GlcN6P (glucosamine-6-phosphate [2]) | self-cleavage kobs at 160 uM GlcN6P (glucosamine-6-phosphate [5])

AUAAAAGCGCCAGAACUACAGAAAUGUAGUUGAUGAGGAGGAGGUUUAUCGAAUUUUCGGCGGAUGCCUCCAAA [C34U]
< 1e-05 s⁻¹: self-cleavage kobs at 40 uM GlcN6P (glucosamine-6-phosphate [1]) | self-cleavage kobs at 640 uM GlcN6P (glucosamine-6-phosphate [2]) | self-cleavage kobs at 160 uM GlcN6P (glucosamine-6-phosphate [5]) | self-cleavage kobs at 2500 uM GlcN6P (glucosamine-6-phosphate [3]) | self-cleavage kobs at 10000 uM GlcN6P (glucosamine-6-phosphate [4])

AUAAAAGCGCCAGAACUACAGAAAUGUAGUUGAGGAGGAGGAGGUUUAUCGAAUUUUCGGCGGAUCCCUCCAAA [C34G G66C]
< 1e-05 s⁻¹: self-cleavage kobs at 40 uM GlcN6P (glucosamine-6-phosphate [1]) | self-cleavage kobs at 10000 uM GlcN6P (glucosamine-6-phosphate [4])

AUAAAAGCGCCAGAACUACAGAAAUGUAGUUGAGGAGGAGGCGGUUUAUCGAAUUUUCGGCGGAUGCCUCCAAA [C34G A42C]
< 1e-05 s⁻¹: self-cleavage kobs at 40 uM GlcN6P (glucosamine-6-phosphate [1]) | self-cleavage kobs at 640 uM GlcN6P (glucosamine-6-phosphate [2]) | self-cleavage kobs at 2500 uM GlcN6P (glucosamine-6-phosphate [3]) | self-cleavage kobs at 10000 uM GlcN6P (glucosamine-6-phosphate [4])

AUAAAAGCGCCAGAACUACAGAAAUGUAGUUGAGGUGGAGGAGGUUUAUCGAAUUUUCGGCGGAUGCCUCCAAA [C34G A36U]
< 1e-05 s⁻¹: self-cleavage kobs at 40 uM GlcN6P (glucosamine-6-phosphate [1]) | self-cleavage kobs at 640 uM GlcN6P (glucosamine-6-phosphate [2]) | self-cleavage kobs at 10000 uM GlcN6P (glucosamine-6-phosphate [4])

AUAAAAGCGCCAGAACUACAGAAAUGUAGUUGAGGAGGAGGAGGUUUAUAGAAUUUUCGGCGGAUGCCUCCAAA [C34G C50A]
< 1e-05 s⁻¹: self-cleavage kobs at 40 uM GlcN6P (glucosamine-6-phosphate [1]) | self-cleavage kobs at 640 uM GlcN6P (glucosamine-6-phosphate [2])

Reference: the supplement of paper PMC7125110
